Laboratory results as given in paper PMC12136788.
The other results are listed elsewhere or left out.

T1: UNK ZnF1-3 (human, UniProt Q9C0B0 31-174)
T1 sequence: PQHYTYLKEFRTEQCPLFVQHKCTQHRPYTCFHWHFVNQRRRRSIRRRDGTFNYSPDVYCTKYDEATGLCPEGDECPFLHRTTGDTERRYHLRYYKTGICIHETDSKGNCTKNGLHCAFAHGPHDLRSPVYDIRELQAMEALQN

B1: chr16:83842930:83842931:+_ENSG00000230989_ENST00000433866|hu_mus|FALSE|FALSE (ssRNA)
RNA: GGGAGUUCUACAGUCCGACGAUCUUCUUCUACUCCAGCCUGGGUCAUGAGGUCAGCGAUAUUCUUCUCCAGGUCGUCAAUCCGACUGCUCAUGUCAUCUAUCCUUCCGAUGAUCUGGUCUGACAUGAUCUGAAACUUGUCUUGCAACAGAGGAUUGAGCAUCA
B2: chr1:65217810:65217811:-_ENSMUSG00000025950_ENSMUST00000097709|mus_mus|motif|central (ssRNA)
RNA: GGGAGUUCUACAGUCCGACGAUCAGCCUCUGCAGCAUCUUUGGUGACCUGGUCAUUGGUGGCAUCACGAUUCUCGGUGCCGGAAUCAUAGCUAUGCAGAUCCAGUUCCACAUAGGGAAGAAUAAGUUUUUCCUUAAUCAAUUCCAACAGAGGAUUGAGCAUCA
B3: chr12:39687547:39687548:-_ENSG00000139116_ENST00000551264|hu_mus|FALSE|FALSE (ssRNA)
RNA: GGGAGUUCUACAGUCCGACGAUCUUAGGAAAUCAACAGCUCACCGUCCCAGAAUCCGUGCCCAGCACUAACAACACAACGUCUACGCAGCAUUUCAAUCCUGAGCACAGAAUGAAGAACAACUGAAAGCUUUGGUCAAUACAGCAACAGAGGAUUGAGCAUCA
B4: 152987051_152987171_73_3pUTR_ENSMUSG00000068040_ENSMUST00000089027|mouse|control|control (ssRNA)
RNA: GGGAGUUCUACAGUCCGACGAUCUAAAAGAAGCUUAAUUUCUCCUUGGCAGAUUGGCCUUGGCAGUGAGGUCUCUGACUAGGUGAAGAGAACGUACGGUGUAACUAUUGGAGCCAUAUUGACUUCUGGCAGACCCGCUCCUCCCAACAGAGGAUUGAGCAUCA
B5: 119145625_119146788_1267_3pUTR_ENSG00000110395_ENST00000264033|human|control|control (ssRNA)
RNA: GGGAGUUCUACAGUCCGACGAUCUGUCUGGAGAAUGUUCCCAUCAGCAGUAACAUACCCAAUAGCCCACUGACCCAGACGAGUACAGCUCAGCCGGAAGAUAUAACUGCCAGGUUUGUGAAUGAAUUUCUGGAGCCGAGCUUUCAACAGAGGAUUGAGCAUCA
B6: chr8:104447970:104447971:+_ENSG00000164934_ENST00000297579|hu_hu|hu_hu_hu_mus_False|8_88 (ssRNA)
RNA: GGGAGUUCUACAGUCCGACGAUCAUACACUUCCCUGCUUCGGCUCUUGUCUACAGGAAAGAUUCUAAUAGACUUAUCAAAGCUGGCAGACACAAAUUCCUUCCCAGUGGGAGAGUAGUCCACAUCAAGCACUGCAGACACGUGCAACAGAGGAUUGAGCAUCA

biological target: T1, UNK ZnF1-3; test: nsRBNS (natural sequence RNA bind-n-seq); RBNS binding buffer (assumed for nsRBNS): 25 mM Tris pH 7.5, 150 mM KCl, 3 mM MgCl2, 0.01% Triton X-100, 500 ug/ml BSA, 20 U/ml SUPERase-In, 4 C; UNK is unkempt and MSI1 is Musashi-1; names of the RNAs are library labels; protein concentration not given here; high values mean tight binding

Row | Binder | binding signal [enrichment R]
1 | B1 | 0.555
2 | B2 | 1.17
3 | B3 | 0.77
4 | B4 | 0.909
5 | B5 | 0.905
6 | B6 | 0.99
